# Results reported in ChEMBL document CHEMBL5606458, “ASAP - ZIKV NS2B-NS3 protease fluorescence single point” (2024).
# The whole screen tested about 2,700 compounds, of which about 160 (5.9%) showed an effect of 50% or more. The list shows a part of the results. Where a SMILES comes first, the peptide text is derived from it. The star is where a group is joined. pNA = O=[N+]([O-])c1ccc(N*)cc1
# Biological target: Nonstructural protein 3 (Zika virus) (UniProt A0A024AXB9)
# [1] = PRVABC59, Concentration 15.0 uM, Number of replicates 1.0
# [2] = PRVABC59, Concentration 50.0 uM, Number of replicates 1.0
# Sequence of UniProt A0A024AXB9 (A0A024AXB9 as listed by the source): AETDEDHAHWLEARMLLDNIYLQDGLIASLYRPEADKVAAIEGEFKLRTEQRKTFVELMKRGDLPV
smiles,measurement,setting,value
CCc1nc(CCNC(=O)c2cc(Cl)ccc2NS(=O)(=O)c2ccc(Oc3ccccc3Cl)cc2)cs1,inhibition,[1],30.4%
COc1ccc([C@@H](C)NC(=O)c2cc(Cl)ccc2NS(=O)(=O)c2ccc(Oc3ccccc3Cl)cc2)cc1OC,inhibition,[1],25.3%
C[Si](C)(C)CN(Cc1ccccc1)C(=O)c1cc(Cl)ccc1NS(=O)(=O)c1ccc(Oc2ccccc2Cl)cc1,inhibition,[1],24.7%
Cn1cc(NC(=O)c2ccccc2C(F)(F)F)c(-c2ccc(CO)cc2)n1,inhibition,"PRVABC59, Concentration 49.5 uM, Number of replicates 2.0, Standard deviation 1.2953568364677661 %",-2.01%
same,inhibition,"PRVABC59, Concentration 99.01 uM, Number of replicates 2.0, Standard deviation 3.1096735084747196 %",-1.36%
same,inhibition,"PRVABC59, Concentration 198.0 uM, Number of replicates 2.0, Standard deviation 3.9065016999811366 %",-0.871%
COc1ccc(CN(C(=O)c2cc(Cl)ccc2NS(=O)(=O)c2ccc(Oc3ccccc3Cl)cc2)C2CC2)cc1,inhibition,[1],21.4%
O=C(/C=C/c1ccccc1)C(=O)N1CCOCC1,inhibition,"PRVABC59, Concentration 200.0 uM, Number of replicates 1.0",28.6%
O=C(c1cc(Cl)ccc1NS(=O)(=O)c1ccc(Oc2ccccc2Cl)cc1)N1CCN(c2ncccc2[N+](=O)[O-])CC1,inhibition,[1],17.7%
O=Cc1ccc(N2CCC(C(=O)Nc3cccc4ccc(O)cc34)CC2)cc1,inhibition,[2],42%
COc1ccc([C@@H]2CCCN2C(=O)c2cc(Cl)ccc2NS(=O)(=O)c2ccc(Oc3ccccc3Cl)cc2)cc1,inhibition,[1],12%
C[C@H](NC(=O)C1CCN(c2ccc(C=O)cc2)CC1)c1cccc2ccccc12,inhibition,"PRVABC59, Concentration 10.0 uM, Number of replicates 1.0",5.9%
COc1cc(NC(=O)c2cc(Cl)ccc2NS(=O)(=O)c2ccc(Oc3ccccc3Cl)cc2)cc(OC)c1,inhibition,[1],24.1%
CC(C)Cn1cccc(C(=O)Nc2ccncc2)c1=O,inhibition,"PRVABC59, Concentration 49.5 uM, Number of replicates 2.0, Standard deviation 4.325265790408527 %",3.56%
same,inhibition,"PRVABC59, Concentration 99.01 uM, Number of replicates 2.0, Standard deviation 0.42415753833763237 %",1.89%
same,inhibition,"PRVABC59, Concentration 198.0 uM, Number of replicates 2.0, Standard deviation 0.007608180505792547 %",1.1%
CSCC[C@H](N)C(=O)N1CCC[C@H]1C(=O)Nc1ccc([N+](=O)[O-])cc1 (H-Met-Pro-pNA),inhibition,"PRVABC59, Concentration 49.5 uM, Number of replicates 2.0, Standard deviation 0.04379462170027595 %",7.22%
same,inhibition,"PRVABC59, Concentration 99.01 uM, Number of replicates 2.0, Standard deviation 0.1465435807480143 %",14.2%
same,inhibition,"PRVABC59, Concentration 198.0 uM, Number of replicates 2.0, Standard deviation 1.7147293588002597 %",26.9%
Cc1ccccc1-c1noc(C)c1C(=O)N1CCC(n2cc(CO)nn2)CC1,inhibition,"PRVABC59, Concentration 49.5 uM, Number of replicates 2.0, Standard deviation 1.9037948950109151 %",0.455%
same,inhibition,"PRVABC59, Concentration 99.01 uM, Number of replicates 2.0, Standard deviation 2.4661894603109435 %",-0.679%
same,inhibition,"PRVABC59, Concentration 198.0 uM, Number of replicates 2.0, Standard deviation 2.12040622056229 %",-0.665%
O=Cc1ccc(N2CCC(C(=O)N3CCN(c4ncccc4[N+](=O)[O-])CC3)CC2)cc1,inhibition,[2],26.1%
O=C(NCCc1ccc2ccccc2c1)c1cc(Cl)ccc1NS(=O)(=O)c1ccc(Oc2ccccc2Cl)cc1,inhibition,[1],33.3%
O=C(NCc1c(Cl)cccc1Cl)c1cc(Cl)ccc1NS(=O)(=O)c1ccc(Oc2ccccc2Cl)cc1,inhibition,[1],42.6%
CNC(=O)c1cccc(C(=O)Nc2ccncc2C)n1,inhibition,"PRVABC59, Concentration 49.5 uM, Number of replicates 2.0, Standard deviation 2.1660905067522638 %",-1.7%
same,inhibition,"PRVABC59, Concentration 99.01 uM, Number of replicates 2.0, Standard deviation 2.255810220661481 %",-0.788%
same,inhibition,"PRVABC59, Concentration 198.0 uM, Number of replicates 2.0, Standard deviation 1.7328723600939488 %",1.3%
Cc1cc(CO)c2cccc(Cc3cccc(C(=O)N4CCCNCC4)c3)c2n1,inhibition,"PRVABC59, Concentration 49.95 uM, Number of replicates 2.0, Standard deviation 0.5715370596790117 %",-1.03%
same,inhibition,"PRVABC59, Concentration 99.9 uM, Number of replicates 2.0, Standard deviation 0.45618130389208883 %",19.9%
CC(=O)N[C@@H](CCCCN)C(=O)Nc1ccccc1Cc1cccc2c(CO)cc(C)nc12,inhibition,"PRVABC59, Concentration 49.95 uM, Number of replicates 2.0, Standard deviation 1.4556435772845158 %",-3.65%
same,inhibition,"PRVABC59, Concentration 99.9 uM, Number of replicates 2.0, Standard deviation 0.5191459981690598 %",11.6%
CN(CCO[Si](C)(C)C(C)(C)C)C(=O)c1cc(Cl)ccc1NS(=O)(=O)c1ccc(Oc2ccccc2Cl)cc1,inhibition,[1],15.3%
O=C(NCc1cc(F)c(F)c(F)c1)c1cc(Cl)ccc1NS(=O)(=O)c1ccc(Oc2ccccc2Cl)cc1,inhibition,[1],31.9%
Cc1cnccc1NC(=O)c1nn(C)c2c1CCCC2,inhibition,"PRVABC59, Concentration 49.5 uM, Number of replicates 2.0, Standard deviation 8.288338929216017 %",7.59%
same,inhibition,"PRVABC59, Concentration 99.01 uM, Number of replicates 2.0, Standard deviation 2.172556918595184 %",2.85%
same,inhibition,"PRVABC59, Concentration 198.0 uM, Number of replicates 2.0, Standard deviation 1.6680930279859854 %",5.73%
CC1(C)C[C@]1(CNC(=O)C1CCN(c2ccc(C=O)cc2)CC1)c1ccccc1,inhibition,[2],7.47%
O=C(NCCc1ccc(Cl)cc1Cl)c1cc(Cl)ccc1NS(=O)(=O)c1ccc(Oc2ccccc2Cl)cc1,inhibition,[1],27.1%
Cc1cnccc1NC(=O)c1cccc(-n2cnnn2)c1,inhibition,"PRVABC59, Concentration 49.5 uM, Number of replicates 2.0, Standard deviation 4.148081450793093 %",-4.56%
same,inhibition,"PRVABC59, Concentration 99.01 uM, Number of replicates 2.0, Standard deviation 2.8220872377424997 %",-2.1%
same,inhibition,"PRVABC59, Concentration 198.0 uM, Number of replicates 2.0, Standard deviation 5.644174285824181 %",-3.31%
Cc1cnccc1NC(=O)c1c(S(C)(=O)=O)cnn1C,inhibition,"PRVABC59, Concentration 49.5 uM, Number of replicates 2.0, Standard deviation 1.8400748659883561 %",-1.66%
same,inhibition,"PRVABC59, Concentration 99.01 uM, Number of replicates 2.0, Standard deviation 3.7772796310341294 %",-1.4%
same,inhibition,"PRVABC59, Concentration 198.0 uM, Number of replicates 2.0, Standard deviation 2.96966138269359 %",0.099%
Cc1cc(CO)c2cccc(Cc3cccc(NC(=O)[C@@H](N)CC(N)=O)c3)c2n1,inhibition,"PRVABC59, Concentration 49.95 uM, Number of replicates 2.0, Standard deviation 1.7966513683626428 %",9.82%
same,inhibition,"PRVABC59, Concentration 99.9 uM, Number of replicates 2.0, Standard deviation 0.341007791078127 %",28.2%
C[C@H](NC(=O)c1cc(Cl)ccc1NS(=O)(=O)c1ccc(Oc2ccccc2Cl)cc1)c1ccc2c(c1)CCCC2,inhibition,[1],18.7%
C[C@@H](c1ccccc1)N(Cc1ccncc1)C(=O)c1cc(Cl)ccc1NS(=O)(=O)c1ccc(Oc2ccccc2Cl)cc1,inhibition,[1],23.5%
O=C(c1cc(Cl)ccc1NS(=O)(=O)c1ccc(Oc2ccccc2Cl)cc1)N1Cc2ccc(Br)cc2C1,inhibition,[1],20.6%
O=C(c1cc(Cl)ccc1NS(=O)(=O)c1ccc(Oc2ccccc2Cl)cc1)N1CCC(c2cccc(Cl)c2)CC1,inhibition,[1],7.32%
O=C(Nc1nnc(C(F)(F)F)s1)c1cc(Cl)ccc1NS(=O)(=O)c1ccc(Oc2ccccc2Cl)cc1,inhibition,[1],22.6%
CCCCCCCCCCNC(=O)c1cc(Cl)ccc1NS(=O)(=O)c1ccc(Oc2ccccc2Cl)cc1,inhibition,[1],27.1%
O=C(Nc1cc(Br)ccc1F)c1cc(Cl)ccc1NS(=O)(=O)c1ccc(Oc2ccccc2Cl)cc1,inhibition,[1],24.4%
CNC(=O)c1ccncc1NS(=O)(=O)c1ccc(Oc2ccccc2Cl)cc1,inhibition,"PRVABC59, Concentration 49.5 uM, Number of replicates 2.0, Standard deviation 4.196010425451196 %",-8.92%
O=Cc1ccc(N2CCC(C(=O)N3CCCC[C@H]3C(F)(F)F)CC2)cc1,inhibition,[2],30.2%
COCCCN1CCN(C(=O)C2CCN(c3ccc(C=O)cc3)CC2)CC1,inhibition,[2],19.2%
COc1cc(Cc2cccc3[nH]nnc23)nc(N2CCNCC2)n1,inhibition,"PRVABC59, Concentration 49.5 uM, Number of replicates 2.0, Standard deviation 1.138158785297289 %",6.02%
same,inhibition,"PRVABC59, Concentration 99.01 uM, Number of replicates 2.0, Standard deviation 1.21249807105038 %",9.76%
same,inhibition,"PRVABC59, Concentration 198.0 uM, Number of replicates 2.0, Standard deviation 1.4508961562682487 %",15.7%
CCN(CC)CCC[C@H](C)NC(=O)c1cc(Cl)ccc1NS(=O)(=O)c1ccc(Oc2ccccc2Cl)cc1,inhibition,[1],26.9%
